Assay results: the supplement of paper PMC10441789
Some of the results follow. Antibody binding of pooled human sera (four to six donors per pool; dilution not stated) to peptides of the Trypanosoma cruzi antigen TSSA on microarrays. Quantile-normalised fluorescence in arbitrary units, mean of duplicate arrays; higher = more binding. No active / inactive call. The uninfected pools are read here as the healthy donors of the same country. The strongest signals lie near the top of the scale (about 60,000).

Legend:
Experiment in all cases: antibody binding signal (normalised fluorescence) (arbitrary fluorescence units); higher = stronger serum antibody binding to peptide
[1] = test system: pooled sera of chronic Chagas disease patients, Argentina
Experimental: (§1)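 Microarray of 15-residue peptides over residues 30-55 of Trypanosoma cruzi TSSAII, each with 1 to 10 substitutions at naturally variable positions, probed with one serum pool per country.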

[2] = test system: pooled sera of chronic Chagas disease patients, Bolivia
Experimental: as §1

[3] = test system: pooled sera of chronic Chagas disease patients, Brazil
Experimental: as §1

[4] = test system: pooled sera of chronic Chagas disease patients, Colombia
Experimental: as §1

[5] = test system: pooled sera of chronic Chagas disease patients, Mexico
Experimental: as §1

[6] = test system: pooled sera of chronic Chagas disease patients, USA
Experimental: as §1

[7] = test system: pooled sera of uninfected people, Argentina
Experimental: as §1

[8] = test system: pooled sera of uninfected people, Bolivia
Experimental: as §1

[9] = test system: pooled sera of uninfected people, Brazil
Experimental: as §1

[10] = test system: pooled sera of uninfected people, Colombia
Experimental: as §1

[11] = test system: pooled sera of uninfected people, Mexico
Experimental: as §1

[12] = test system: pooled sera of uninfected people, USA
Experimental: as §1

Sequence | antibody binding signal [1] | antibody binding signal [2] | antibody binding signal [3] | antibody binding signal [4] | antibody binding signal [5] | antibody binding signal [6] | antibody binding signal [7] | antibody binding signal [8] | antibody binding signal [9] | antibody binding signal [10] | antibody binding signal [11] | antibody binding signal [12]
DKKPATGETPSPPGA | 28700 | 22300 | 29800 | 121 | 170 | 22200 | 158 | 446 | 256 | 210 | 1510 | 415
KDNKAAAGEAPSQSG | 460 | 3570 | 17800 | 181 | 173 | 10900 | 377 | 1050 | 139 | 230 | 94.7 | 111
SGKDKKPATGGTPSP | 942 | 255 | 566 | 819 | 727 | 1060 | 168 | 92.8 | 226 | 355 | 108 | 108
ENKAATGGTPSQPGA | 484 | 2240 | 12800 | 1660 | 440 | 1930 | 502 | 153 | 534 | 352 | 1180 | 162
PPSGTEKKPATGGTP | 34300 | 1920 | 31500 | 945 | 5550 | 5920 | 1320 | 876 | 864 | 305 | 236 | 741
GTDNKAATGEAPSQS | 25400 | 38100 | 40600 | 183 | 240 | 28700 | 180 | 486 | 1370 | 161 | 136 | 110
EKKAAAGGTPSQSGA | 700 | 650 | 269 | 4670 | 410 | 1720 | 170 | 422 | 1920 | 139 | 136 | 574
DKKPATGGTPSQPGA | 888 | 833 | 4190 | 2660 | 707 | 694 | 464 | 431 | 1190 | 256 | 600 | 204
TEKKAATGGAPSPPG | 1990 | 390 | 1760 | 3110 | 2840 | 3430 | 553 | 1600 | 186 | 1150 | 299 | 260
SGTEKKTATGEAPSQ | 14900 | 26300 | 15800 | 532 | 634 | 20800 | 212 | 434 | 323 | 113 | 138 | 110
EKKPATGGAPSPPGA | 1590 | 1590 | 1110 | 2550 | 1150 | 2290 | 495 | 1500 | 218 | 163 | 168 | 613
TPPSGTEKKPATGGT | 37900 | 5750 | 39100 | 535 | 31400 | 6330 | 1180 | 847 | 1580 | 200 | 348 | 1090
EKKPATGGAPSQPGA | 1430 | 1120 | 15000 | 1730 | 974 | 1750 | 375 | 1230 | 189 | 266 | 192 | 697
KENKAAAGETPSPSG | 276 | 229 | 3970 | 259 | 236 | 2940 | 168 | 154 | 115 | 110 | 157 | 1720
GTDNKPATGETPSQS | 37400 | 32400 | 44200 | 1160 | 241 | 28400 | 239 | 685 | 581 | 134 | 1750 | 119
KENKPATGGTPSPPG | 374 | 379 | 1370 | 188 | 729 | 381 | 334 | 416 | 180 | 150 | 141 | 163
SGTENKPATGGTPSQ | 45700 | 18600 | 34400 | 638 | 1250 | 7380 | 748 | 1840 | 385 | 267 | 421 | 163
TENKAATGETPSQPG | 31700 | 5570 | 41300 | 221 | 149 | 13200 | 120 | 402 | 258 | 232 | 131 | 316
PSGTENKTATGETPS | 37900 | 31200 | 42300 | 864 | 1260 | 12500 | 1100 | 477 | 222 | 357 | 323 | 408
SGTENKPAAGGAPSQ | 50100 | 19200 | 34400 | 1690 | 1710 | 8430 | 644 | 1830 | 333 | 262 | 356 | 158
